Experimental findings from ChEMBL document CHEMBL4888484, “Replenishing the malaria drug discovery pipeline: Screening and hit evaluation of the MMV Hit Generation Library 1 (HGL1) against asexual blood stage Plasmodium falciparum ,using a nano luciferase reporter read-out” (2022) are described below.

In all, about 150,000 compounds went through this assay and about 540 (0.36%) showed an effect of 50% or more. The list shows a part of the results.

The experiment relates to Plasmodium falciparum. As to the kind of experiment: Primary screen in NF54 nanoGlo assay, in single point, at 2uM, 72h; a lower Z score goes with more inhibition. As to conditions: timepoint 72 hour. The class given is functional, Erythrocyte.
By % Inhibition is commonly meant the drop in the measured response relative to a control, in per cent. On to `Cc1cc(NC(=O)NCCCN2CCCCC2)no1`, for which the “% Inhibition” value is -5% and the Z score was 0.72.
For `Fc1cccc(CNc2nnc([C@@H]3Cc4ccccc4O3)o2)c1` the same measures were -6% and 0.82.
The like results for `CC1CCN(c2ccc(C(=O)NCCCN3CCCC3=O)cc2NS(=O)(=O)c2ccc(Br)cc2)CC1` were, in that order, -1% and 0.11.
Take `COc1cc(-c2cc(C(=O)N(CCc3ccccc3)CCc3ccccc3)c3ccccc3n2)cc(OC)c1OC`: the “% Inhibition” value is -2% and the Z score is 0.31.
The like results for `Cc1nc(CC[C@H]2CCN(C(=O)c3noc(C)c3Cn3cccn3)C2)no1` were, in that order, -2% and 0.31.
On to `O=C1CN(c2ccc(NC(=O)c3cnc4ccccc4n3)cn2)CCN1`, for which the “% Inhibition” value is given as -14% and the Z score is reported as 2.68.
The like results for `CN(C)C(=O)[C@]12CN(Cc3ccccc3)C[C@H]1CN(C(=O)Cc1cccs1)C2` were, in that order, -19% and 2.55.
The like results for `O=C(Cc1ccccc1F)N1CC[C@H](Oc2cccc(F)c2)C1` were, in that order, -12% and 1.42.
The like results for `COc1ccc(N(C)C)cc1S(=O)(=O)N1CCCCC1` were, in that order, -17% and 1.54.
Regarding `COCCCNC(=O)N1CCOCC1`, the “% Inhibition” value is on record as -5% and the Z score is given as 0.65.
For `C[C@@H](C(=O)N(C)CCC#N)N1CCC(CN2CCCCC2=O)CC1` the same measures were -5% and 0.71.
For `CNC(=O)c1cc2c(s1)CCN(C(=O)c1cc(C)n3nc(C)cc3n1)C2` the same measures were -6% and 1.09.
The like results for `CC(C)(C)C(=O)NCCn1nc(C2CC2)cc1C1CC1` were, in that order, -3% and 0.35.
Take `Cc1cccn2c(CNCCc3ccccn3)c(C(=O)N3CCOCC3)nc12`: the “% Inhibition” value was -4% and the Z score amounted to 0.84.
For `O=C(C1c2ccccc2Oc2ccccc21)N1Cc2cncnc2C1` the same measures were -5% and 0.85.
The like results for `Cc1cc(CN(C)S(=O)(=O)c2ccc(-c3cc(C(F)(F)F)[nH]n3)o2)no1` were, in that order, 1% and -0.11.
For `CC(=O)Nc1ccc(Br)c(C)c1F` the same measures were -18% and 2.61.
Consider `O=C(NCCC(=O)N1CC[C@H](n2cccn2)C1)C1CCCCC1`, for which the “% Inhibition” value is recorded as -13% and the Z score was 1.28.
For `COc1ccc(-c2cc(C(=O)NCc3ccccc3)c3c(-c4ccc(C)cc4)[nH]nc3n2)cc1OC` the same measures were -11% and 1.02.
On to `CCCC[C@H](O)CN(Cc1ccco1)Cc1c(C)nn(-c2ccccc2)c1Oc1ccc(C)cc1`, for which the “% Inhibition” value came to 2% and the Z score was -0.42.
For `CCN1C[C@@H](CN(C)S(=O)(=O)Cc2cc(F)ccc2Cl)CC1=O`, the “% Inhibition” value was -13% and the Z score is on record as 1.7.
For `O=C(Nc1ccc(N2CCc3sccc3C2)nc1)c1ccc[n+]([O-])c1` the same measures were -19% and 2.55.
The like results for `CCC(=O)N1CCc2cc(CNS(=O)(=O)c3ccc(F)cc3)ccc21` were, in that order, -11% and 1.33.
As to `CCN1CCCN(C(=O)CC2CCCCC2)CC12CCOCC2`, the “% Inhibition” value was -9% and the Z score was 1.09.
Turning to `NNC1=NC2(CCCCC2)Cc2ccccc21`, the “% Inhibition” value was -12% and the Z score was 1.98.
For `CC(C)(C)[C@H](NS(C)(=O)=O)C(=O)NC1CCCC1` the same measures were 8% and -0.88.
The like results for `CN(Cc1cscn1)C(=O)Nc1ncc(C(C)(C)C)s1` were, in that order, 0% and 0.04.
As to `c1ccc(Cn2nncc2CN2CCCc3occc3C2)cc1`, the “% Inhibition” value was -11% and the Z score amounted to 1.39.
For `Cc1cc(O)n2nc(N(C)C(=O)C(=O)N3CCN(C)CC3)c(S(=O)(=O)c3ccccc3)c2n1` the same measures were 30% and -1.91.
Consider `Cc1ccc([C@@H]2CCCN2C(=O)Nc2ccncc2)cc1`, for which the “% Inhibition” value is reported as -6% and the Z score turned out to be 0.82.
For `CN(Cc1nccs1)C(=O)c1cc(NCc2cc3ccccc3s2)cc(S(=O)(=O)N(C)C)c1` the same measures were -18% and 2.1.
The like results for `CCc1cccc(C)c1NC(=O)N1CC(=O)N2CCc3cc(OC)c(OC)cc3[C@@H]2C1` were, in that order, -11% and 1.49.
Turning to `Cc1nc(-c2cccs2)sc1CNC(=O)c1ccc(-n2cccn2)nn1`, the “% Inhibition” value is on record as -10% and the Z score worked out at 1.86.
For the compound `COCCN(C)Cc1ccc(CC2CCN(C(=O)c3n[nH]c4ccccc34)CC2)cc1`, the “% Inhibition” value is recorded as -10% and the Z score is 1.83.
For `NS(=O)(=O)C[C@H]1CCN(C(=O)c2scc3c2CCCC3)C1` the same measures were -6% and 0.95.
For `CCCN(CCC)C(=O)c1cc(F)ccc1OC` the same measures were -10% and 1.09.
The like results for `COC[C@H]1C[C@@H](NC(=O)c2ccc(C#N)cc2)[C@H](O)[C@@H]1O` were, in that order, 6% and -0.76.
In the case of `OCCC[C@@H]1CN(Cc2cnn(-c3cccc(F)c3)c2)CC[C@@H]1N1CCOCC1`, the “% Inhibition” value is given as 11% and the Z score was -1.41.
With `O=C1CC(C(=O)N2CCC3(CCCCCC3)C2)C1`, the “% Inhibition” value stood at 9% and the Z score was -1.56.
The like results for `CCCOc1cc(C)c2c(c1C)C[C@H]([C@H](C)C(=O)NCCO)CC2` were, in that order, 25% and -2.87.
